Reference: the RNAGym collection of RNA variant scans (doi:10.1073/pnas.2313332121)
Variants at the floor of the assay are shown more often than the library holds them.

B1: TPR 5TU (parent)
chain: GGAUCUUCUCGAUCUAACAAAAAAGACAAAUCUGCCACAAAGCUUGAGAGCAUCUUCGGAUGCAGAGGCGGCAGCCUUCGGUGGCGCGAUAGCGCCAACGUUCUCAACUAUGACACGCAAAACGCGUGCUCCGUUGAAUGGAGUUUAUCAUG

Variants of: B1
Assay: polymerase ribozyme fitness, log enrichment relative to wild type (log ratio); higher = more active; in vitro selection for triplet polymerase activity
In short: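 Fitness compares each genotype's enrichment to that of the wild type on a logarithmic scale, averaging replicates with inverse-variance weights. The logarithm is base 2. Enrichment came from Illumina sequencing of input and output libraries after one triplicate round of in vitro selection, which included frozen incubation at −7 °C, of PCR-built, transcribed mutant libraries of each subunit of a heterodimeric triplet polymerase ribozyme. Only genotypes with ≥10 input reads and ≥1 read per output were kept.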

Variant	polymerase ribozyme fitness (log ratio)
GGAUCUUCUCGAUCUAACAAAAAAGACAAAUCUGCCACAAAGCUUGAGAGCAUCUUCGGAUGCAGAGGCGGCAGCCUUCCGUGGCUCGAUAGCGCCAACGUUCUCAACUAUGACACGCAAAACGCGUGCUCCGUUGAAUGGAGUUUAUCAUG [G80C G86U]	-3.37
GGAUCUUCUCGAUCUAACAAAAAAGACAAAUCUGCCACAAAGCUUGAGAGCAUCUUCGGAUGCAGAGGCGGCAGCCUUCGAUGGCGCGAUAGCGCCAACGUUCUCAUCUAUGACACGCAAAACGCGUGCUCCGUUGAAUGGAGUUUAUCAUG [G81A A107U]	-3.89
GGAUCUUCUCGAUCUAACAAAAAAGACAAAUCUGCCACAAAGCUUGAGAGCAUCUUCGGAUGCAGAGGCGGCAGCCUUCUGUGGUGCGAUUGCGCCAACGUUCUCAACUAUGACACGCAAAACGCGUCCUCCGUUGAAUGGAGUUUAUCAUG [G80U C85U A91U G128C]	≤ -4.2
GGAUCUUCUCGAUCUAACAAAAAAGACAAAUCUGCCACAAAGCUUGAGAGCAUCUUCGGAUGCAGAGGCGGCAGCCUUCGAUGGCGCGAUAGCGCUAACGUUCUCAACUAUGAGUCGCAAAACGCGUGCUCCGUUGAAUGGAGUUUAUCAUG [G81A C96U C114G A115U]	-3.6
GGAUCUUCUCGAUCUAACAAAAAAGACAAAUCUGCCACAAAGCUUGAGAGCAUCUUCGGAUGCAGAGGCGGCAGCCUUCCGUGGCGCGAUAGGGCCAACGUUCUCAACUAUGACCCGCAAAACGCGUGCUCCGUUGAAUGGAGCUUAUCAUG [G80C C93G A115C U144C]	≤ -4.2
GGAUCUUCUCGAUCUAACAAAAAAGACAAAUCUGCCACAAAGCUUGAGAGCAUCUUCGGAUGCAGAGGCGGCAGCCUUCUGCGGCGCGAUAGCGCCAACGUUCUCAACUAUGACACGCAAAACGCGUGCUCCGUUGAAUGGAGUUUAUCAUG [G80U U82C]	-1.68
GGAUCUUCUCGAUCUAACAAAAAAGACAAAUCUGCCACAAAGCUUGAGAGCAUCUUCGGAUGCAGAGGCGGCAGCCUUCCGUGGCGCGAUAGGGCCAACGUUCUCAACUAUGACACGCAAAACGCGGGCUCCGUUGAAUGGAGUUUAUCGUG [G80C C93G U127G A150G]	≤ -4.2
GGAUCUUCUCGAUCUAACAAAAAAGACAAAUCUGCCACAAAGCUUGAGAGCAUCUUCGGAUGCAGAGGCGGCAGCCUUCUGUGGCGCGAUCGCGCCAACGUUCUCUACUAUGACACGCAAAACGCGUGCUCGGUUGAAUGGAGUUUAUCAUG [G80U A91C A106U C132G]	≤ -4.2
GGAUCUUCUCGAUCUAACAAAAAAGACAAAUCUGCCACAAAGCUUGAGAGCAUCUUCGGAUGCAGAGGCGGCAGCCUUCGAUGGCGCGCUAGCGCCAACGUUCUCAACUAUGACACGCAAAACGCGUGCUCCGUUGAAUGGAGUUUAUCAUG [G81A A89C]	-0.165
GGAUCUUCUCGAUCUAACAAAAAAGACAAAUCUGCCACAAAGCUUGAGAGCAUCUUCGGAUGCAGAGGCGGCAGCCUUCGAUGGCGCGAUAGCGUCAACGUUCUCAACUAUGACACGCAAAACGCGUGCUCCGUUGAAUGGAGUUUAUCAUG [G81A C95U]	-1.88
GGAUCUUCUCGAUCUAACAAAAAAGACAAAUCUGCCACAAAGCUUGAGAGCAUCUUCGGAUGCAGAGGCGGCAGCCUUCGAUGGCGCGAUCGCGGCAACGUUCUCAACUAUGACACGCAAAACCCGUGCUCCGUUGAAUGGAGUUUAUCAUG [G81A A91C C95G G124C]	≤ -4.2
GGAUCUUCUCGAUCUAACAAAAAAGACAAAUCUGCCACAAAGCUUGAGAGCAUCUUCGGAUGCAGAGGCGGCAGCCUUCCGUGGCGUGAUAGCGCCAACGUUCUCAACUAUGACACGCAAAACGCGUGCUCCGUUGAAUGGAGUUUAUCAUG [G80C C87U]	≤ -4.2
GGAUCUUCUCGAUCUAACAAAAAAGACAAAUCUGCCACAAAGCUUGAGAGCAUCUUCGGAUGCAGAGGCGGCAGCCUUCCGUGGCCCGAUAGCGCCAACGUUCUCAACUAUGACACGCAAAACGCGUGCUCCGUUGAAAGGAGUUUAUCAUG [G80C G86C U139A]	≤ -4.2
GGAUCUUCUCGAUCUAACAAAAAAGACAAAUCUGCCACAAAGCUUGAGAGCAUCUUCGGAUGCAGAGGCGGCAGCCUUCCGUGGCGCGAUAGCGCUAACGUUCUCAACUAUGACACGCAAAACGCGUGCUCCGUUGAAUGCAGUUCAUCAUG [G80C C96U G141C U146C]	≤ -4.2
GGAUCUUCUCGAUCUAACAAAAAAGACAAAUCUGCCACAAAGCUUGAGAGCAUCUUCGGAUGCAGAGGCGGCAGCCUUCGAUGGCGCGAUGGCGCCAACGUUCUCAACUAUGACACGCAAAACGCGUGCUCCGUUGAAUGGAGUUUAUCAUG [G81A A91G]	-2.82
GGAUCUUCUCGAUCUAACAAAAAAGACAAAUCUGCCACAAAGCUUGAGAGCAUCUUCGGAUGCAGAGGCGGCAGCCUUCGAUGGCGCGAUAGCGCCAACGUUCUCUACUAUGACACGCAAAACGCGUGCUCCGUUGAAUGGAGUUUAUCAUG [G81A A106U]	-1.09
GGAUCUUCUCGAUCUAACAAAAAAGACAAAUCUGCCACAAAGCUUGAGAGCAUCUUCGGAUGCAGAGGCGGCAGCCUUCCGUGGCUCGAUAGCGCCAAGGUUCUCAACGAUGACACGCAAAACGCGGGCUCCGUUGAAUGCAGUUUAUCAUG [G80C G86U C99G U109G U127G G141C]	≤ -4.2
GGAUCUUCUCGAUCUAACAAAAAAGACAAAUCUGCCACAAAGCUUGAGAGCAUCUUCGGAUGCAGAGGCGGCAGCCUUCUGUGGCGCGAUCGCGCCAACGUUCUCAACUAUGACACGCAAAUCGCGUGCUCCGUUAAAUGCAGUUUAUCAUG [G80U A91C A122U G136A G141C]	≤ -4.2
GGAUCUUCUCGAUCUAACAAAAAAGACAAAUCUGCCACAAAGCUUGAGAGCAUCUUCGGAUGCAGAGGCGGCAGCCUUCCGUGGCGCGAUAGGGCCAACGUUCUCAACUAUGACACGCAAAACGCGUGCUCCGUUGAAUGGAGUUUAUCAUG [G80C C93G]	-4.2

Variant	polymerase ribozyme fitness (log ratio)
GGAUCUUCUCGAUCUAACAAAAAAGACAAAUCUGCCACAAAGCUUGAGAGCAUCUUCGGAUGCAGAGGCGGCAGCCUUCGAUGGUGCGAUAGCGCCAACGUUCUCAACUAUGACACGCAAAACGCGUGCUCAGUUGAAUGGAGUUUAUCAUG [G81A C85U C132A]	-2.23
GGAUCUUCUCGAUCUAACAAAAAAGACAAAUCUGCCACAAAGCUUGAGAGCAUCUUCGGAUGCAGAGGCGGCAGCCUUCCGUGGCGCGAUAGCGCCAACGUUCUCAACUAUGACACGCAAAACGCGUCCUCCGUUGAAGCGAGUUUAUCAUG [G80C G128C U139G G140C]	≤ -4.2
GGAUCUUCUCGAUCUAACAAAAAAGACAAAUCUGCCACAAAGCUUGAGAGCAUCUUCGGAUGCAGAGGCGGCAGCCUUCUGUGCCGCGAUAGCGCCGACGUUCUCAACUAUGACACGCAAAACGCGUGCUCCGCUGAAUGGAGUUUAUCAUG [G80U G84C A97G U134C]	≤ -4.2
GGAUCUUCUCGAUCUAACAAAAAAGACAAAUCUGCCACAAAGCUUGAGAGCAUCUUCGGAUGCAGAGGCGGCAGCCUUCUGUGGCGCGAUAGCGCCAACGUUCUCAACUAUGAUACGCAAAACGCGUGCUCCGUUGAAUGGAGUUUAUCAUG [G80U C114U]	-2.31
GGAUCUUCUCGAUCUAACAAAAAAGACAAAUCUGCCACAAAGCUUGAGAGCAUCUUCGGAUGCAGAGGCGGCAGCCUUCGAUGGCGCGAUGGUGCCAACGUUCUCAACUAUGACACGCAAAACGCGUGCUCCGUUUAAUGGAGUUUAUCAUG [G81A A91G C93U G136U]	≤ -4.2
GGAUCUUCUCGAUCUAACAAAAAAGACAAAUCUGCCACAAAGCUUGAGAGCAUCUUCGGAUGCAGAGGCGGCAGCCUUCUGUGGCGCGAUAGCGCCAACGUUCUCAACUGUGACACGCAAAACGCGUGCUCCGUUGAAUGGAGUUUAUCAUG [G80U A110G]	-4.05
GGAUCUUCUCGAUCUAACAAAAAAGACAAAUCUGCCACAAAGCUUGAGAGCAUCUUCGGAUGCAGAGGCGGCAGCCUUCCGUGGCGCGAUACCGCCAACGUUCUCAACUAUGACACGCAAAACGCGUACUCCGUUGAAUGGAGUUAAUCAUG [G80C G92C G128A U146A]	≤ -4.2
GGAUCUUCUCGAUCUAACAAAAAAGACAAAUCUGCCACAAAGCUUGAGAGCAUCUUCGGAUGCAGAGGCGGCAGCCUUCUGUGGCGCGAUAGCGCCAACGUUCUCAAGUAUGACACGCAAAACGCGUGCUCCGUUGAAUGGAGUUUAUCAUG [G80U C108G]	≤ -4.2
GGAUCUUCUCGAUCUAACAAAAAAGACAAAUCUGCCACAAAGCUUGAGAGCAUCUUCGGAUGCAGAGGCGGCAGCCUUCCGUGGCGCGAGAGCGCCAACGUUCUCAACUAUGACACGCAAAACGCGUGCUCCGUUGAAUGGAGUUUAUCAUG [G80C U90G]	≤ -4.2
GGAUCUUCUCGAUCUAACAAAAAAGACAAAUCUGCCACAAAGCUUGAGAGCAUCUUCGGAUGCAGAGGCGGCAGCCUUCGAUGGAGCGAUAGCGCCAACGUUCUCAACUAUGACACGCAAAACGCGUGCUCCGUUGAAUGGAGUUUAUUAUG [G81A C85A C149U]	-0.877
GGAUCUUCUCGAUCUAACAAAAAAGACAAAUCUGCCACAAAGCUUGAGAGCAUCUUCGGAUGCAGAGGCGGCAGCCUUCCGUGGUGCGAUAGCGCCAACGUUCUCAACUAUGACAAGCAAAACGCGCGCUCCGUAGAAUGGAGUUUAUCAUG [G80C C85U C116A U127C U135A]	≤ -4.2
GGAUCUUCUCGAUCUAACAAAAAAGACAAAUCUGCCACAAAGCUUGAGAGCAUCUUCGGAUGCAGAGGCGGCAGCCUUCCGUGGCGAGAUAGUGCCAACGUUCUCAACUAUGACACGCAAAACGCGUGCUCCGUUGAAUGGAGUUCAUCAUG [G80C C87A C93U U146C]	≤ -4.2
GGAUCUUCUCGAUCUAACAAAAAAGACAAAUCUGCCACAAAGCUUGAGAGCAUCUUCGGAUGCAGAGGCGGCAGCCUUCUGUGGCGCGAUAGAGCCAACGUUCUCAAGUAUGACACGCAAAACGCGUGCUCCGUUGAUUGAAGUUUAUCAUG [G80U C93A C108G A138U G141A]	≤ -4.2
GGAUCUUCUCGAUCUAACAAAAAAGACAAAUCUGCCACAAAGCUUGAGAGCAUCUUCGGAUGCAGAGGCGGCAGCCUUCCGUGGCGUGAUAGCGCCAACGUUCUCAACUAUGACACGAAAAACGCGUGCUCCGUUGAAUGGAGUUUAUCAUG [G80C C87U C118A]	≤ -4.2
GGAUCUUCUCGAUCUAACAAAAAAGACAAAUCUGCCACAAAGCUUGAGAGCAUCUUCGGAUGCAGAGGCGGCAGCCUUCCGUGGCGUGAUAGCGCCAACGUGCUCAACUAUGACACGCAAAACCCGUGCACCGUUGAAUGGAGUUUAUCAUG [G80C C87U U102G G124C U130A]	≤ -4.2
GGAUCUUCUCGAUCUAACAAAAAAGACAAAUCUGCCACAAAGCUUGAGAGCAUCUUCGGAUGCAGAGGCGGCAGCCUUCCGUGGCGGGAUAGCGCCAACUUUCUCAACUAUGACACGUAAAACGCGUGCUCCUUUGAAUGGAGUUUAUCAUG [G80C C87G G100U C118U G133U]	≤ -4.2
GGAUCUUCUCGAUCUAACAAAAAAGACAAAUCUGCCACAAAGCUUGAGAGCAUCUUCGGAUGCAGAGGCGGCAGCCUUCCGUGGUGCGAUAGCGCCAACGUUCUCAACUAUGACACGCAAAACGCGUGCUCCGUUGUAUGGAGUUUCUCAUG [G80C C85U A137U A147C]	≤ -4.2
GGAUCUUCUCGAUCUAACAAAAAAGACAAAUCUGCCACAAAGCUUGAGAGCAUCUUCGGAUGCAGAGGCGGCAGCCUUCCGUGGCGCGAUAGCGCCAACGUUCUCAACUAUGACACGCAAAACGCGUUCUCCGUUGAAUGGAGUUUAUCAUG [G80C G128U]	≤ -4.2
GGAUCUUCUCGAUCUAACAAAAAAGACAAAUCUGCCACAAAGCUUGAGAGCAUCUUCGGAUGCAGAGGCGGCAGCCUUCCGUGGCUCGAUAGCGCCAACGUUCUCAACUAUGACACGCAAAACGGGUGCUCCGUUGCAUGGAGUUUAUCAUG [G80C G86U C125G A137C]	≤ -4.2
